Data as given in article PMC4336329 (PLoS ONE, 2015).
In all, about 310,000 compounds went through this assay and about 2,200 (0.71%) showed an effect of 50% or more. The effect is printed as a negative number. Some of the results follow.

These molecules were tested against human ether-à-go-go-related gene (hERG) potassium channel (human, UniProt Q12809) (assay: primary screen, population patch clamp on CHO cells stably expressing hERG).
Chain of human ether-à-go-go-related gene (hERG) potassium channel (Q12809 whole entry, looked up): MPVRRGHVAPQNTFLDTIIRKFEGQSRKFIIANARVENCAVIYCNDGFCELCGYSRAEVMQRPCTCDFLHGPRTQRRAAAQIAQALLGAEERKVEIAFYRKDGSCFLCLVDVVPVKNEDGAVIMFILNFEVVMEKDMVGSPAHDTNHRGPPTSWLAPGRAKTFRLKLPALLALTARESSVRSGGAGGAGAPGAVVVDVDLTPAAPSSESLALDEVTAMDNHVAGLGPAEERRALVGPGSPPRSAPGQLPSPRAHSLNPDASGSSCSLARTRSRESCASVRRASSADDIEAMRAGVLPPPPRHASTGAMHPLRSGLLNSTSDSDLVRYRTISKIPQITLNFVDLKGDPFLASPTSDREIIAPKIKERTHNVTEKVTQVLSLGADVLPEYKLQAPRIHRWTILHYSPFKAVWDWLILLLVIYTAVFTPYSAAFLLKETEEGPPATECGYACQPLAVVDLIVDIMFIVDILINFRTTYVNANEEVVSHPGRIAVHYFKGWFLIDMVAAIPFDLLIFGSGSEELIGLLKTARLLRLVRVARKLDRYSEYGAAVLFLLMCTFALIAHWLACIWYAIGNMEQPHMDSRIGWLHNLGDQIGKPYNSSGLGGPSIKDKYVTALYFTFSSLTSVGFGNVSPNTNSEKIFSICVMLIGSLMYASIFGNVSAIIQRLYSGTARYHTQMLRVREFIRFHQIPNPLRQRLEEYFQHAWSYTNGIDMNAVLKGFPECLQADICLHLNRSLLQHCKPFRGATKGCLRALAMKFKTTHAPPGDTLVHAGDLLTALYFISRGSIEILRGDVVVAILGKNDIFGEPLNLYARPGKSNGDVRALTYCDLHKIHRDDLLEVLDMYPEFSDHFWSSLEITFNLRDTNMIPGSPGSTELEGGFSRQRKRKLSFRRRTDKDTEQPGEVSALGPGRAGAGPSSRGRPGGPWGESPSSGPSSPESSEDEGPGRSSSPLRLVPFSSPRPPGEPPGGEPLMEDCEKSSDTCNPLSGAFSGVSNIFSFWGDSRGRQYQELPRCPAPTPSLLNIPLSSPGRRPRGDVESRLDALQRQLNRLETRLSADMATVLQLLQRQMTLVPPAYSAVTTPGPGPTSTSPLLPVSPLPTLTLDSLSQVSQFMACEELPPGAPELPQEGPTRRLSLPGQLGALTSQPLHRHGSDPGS

Structure (SMILES) | hERG current change (%, negative = inhibition) at 1uM [%]
COc1ccc(NC(=O)Cn2nnc(C(=O)NCc3ccc4c(c3)OCO4)c2N)cc1 | 13.8
CC(C)C(=O)N1CCC2(CC1)Oc1ccc(Cl)cc1C(=O)C21CC(c2ccccc2)=NO1 (centres unmarked) | 2.32
S=C(NNC(=S)NC1CC2CCC1C2)NC1CC2C=CC1C2 (centres unmarked) | 13.2
O=C(Nc1cccc(F)c1)N(Cc1ccc(Cl)cc1)CC(O)C(F)(F)F (centres unmarked) | 1.71
CN(C)c1ccc(P(=O)(Nc2cccc(C(F)(F)F)c2)N2CCOCC2)c(NC(=O)c2cccs2)c1 (centres unmarked) | 15
c1ccc(-c2ccccc2-n2cnnn2)cc1 | 4.4
O=C(COc1cc(Cl)ccc1Cl)Nc1ccc2[nH]c(=O)[nH]c2c1 | 20.6
O=[N+]([O-])c1ccc(S(=O)(=O)N/N=C/c2ccco2)cc1 | 7.67
Cc1cc(S(=O)(=O)NCCc2ccccc2)ccc1-n1cnnn1 | 5.32
Fc1ccc(Sc2nc(-c3ccccc3)nnc2C(F)(F)F)cc1 | 15.5
COc1ccccc1COCC(O)CN1CCCCC1CO.O=C(O)C(=O)O (centres unmarked) | 14.9
CC(C)Oc1cccc(C(=O)NC(=S)Nc2ccccc2N2CCOCC2)c1 | 0.628
COc1ccc(C2c3ccc(O)cc3Oc3ncn4nc(-c5ccncc5)nc4c32)cc1OC (centres unmarked) | -0.788
CCCN1Cc2cccc(C(=O)NCc3ccc(C)cc3)c2C1=O | -4.32
COc1cc(CNCc2ccccn2)ccc1OCc1c(Cl)cccc1Cl.Cl | -4
Cc1ccc(C)c(NC(=O)CCC(=O)NNC(=O)c2cccs2)c1 | 14.4
O=C(Nc1cc(S(=O)(=O)Nc2ccccc2Cl)ccc1O)c1cc2c(s1)CCCC2 | -0.558
Cn1c(/C=C/N2CCOCC2)c(C(=O)c2ccc(Br)cc2)c(=O)n(C)c1=O | 5.89
Nc1nc(N)nc(-c2cc(O)ccc2O)n1 | 5.4
Cc1c(/C=C/C(=O)c2ccccc2)cnn1C | 8.63
O=C(Nc1cccc(Cl)c1)OC1CN2CCC1CC2 (centres unmarked) | 12.8
COC(=O)C1=C(C)N(Cc2ccccc2)C(=NCc2ccc(OC)cc2)N[C@H]1c1cccc(F)c1 | 11.4
CC(C)c1ccc2[nH]c3nc(SCC(=O)N4CCOCC4)nnc3c2c1 | 10.2

Structure (SMILES) | hERG current change (%, negative = inhibition) at 1uM [%]
Cc1cc(C)c(C#N)c(Oc2ccccc2)n1 | 6.47
Cc1ccc(NC(=O)c2ccc(OCc3c(C)noc3C)cc2)c(C)c1 | 11.2
Cc1nc(C(=O)N2CCCC(Nc3ccc(C)c(C)c3)C2)cs1 (centres unmarked) | 0.558
CCN(CC)CCOC(=O)/C=C/c1ccccc1.Cl | 4.06
O=C(COc1ccccc1)Nc1cc(C(F)(F)F)ccc1N1CCCC1 | 16.1
Cc1ccc(C(=O)N2CCN(c3ncnc4c3cnn4-c3ccccc3)CC2)cc1 | 14.9
CCC1(c2ccc(F)cc2)NC(=O)N(CC(=O)N2c3ccccc3NC(=O)CC2C)C1=O (centres unmarked) | -33.2
Cc1ccc(S(=O)(=O)N2CCC(C(=O)OCC(=O)N3CCCC3=O)CC2)cc1C | 14
CCCOc1ccc(N2C(=O)CC(SCCc3nc4ccccc4[nH]3)C2=O)cc1 (centres unmarked) | 4.82
COc1ccc(OC)c(/C=C/C(=O)c2ccc(Cl)cc2)c1 | 3.58
Cc1c(/C=N/NC(=O)C(C)(C)Oc2ccc(Cl)cc2)cnn1C | -4.73
Cc1ccc(OCC(=O)N2CCC(N3CC(C)CC(C)C3)CC2)cc1 (centres unmarked) | -6.48
O=C(O)C(c1ccccc1)C1(O)CCCC1 (centres unmarked) | 9.08
CC1=C(C(=O)Nc2ccccc2C)C(c2ccc(C)o2)n2c(s/c(=C/c3ccccc3)c2=O)=N1 (centres unmarked) | 10.9
Cc1[nH]nc2c1C1(CCN(C(=O)c3ccccc3)CC1)C(C#N)=C(N)O2 | 6.34
O=C(Nc1ccccc1)Nc1cccc2nsnc12 | 6.8
COc1ccc(OC)c(-c2nn(-c3ccccc3)cc2C(=O)NCC(c2cccs2)N2CCOCC2)c1 (centres unmarked) | 5.12
Cc1ccsc1CNCCc1ccccc1F | 13.5
CCCNC(=O)c1cc(S(=O)(=O)N2CCCCC2)c[nH]1 | 1.32
Cc1c(NC(=S)NC(=O)COc2ccccc2)c(=O)n(-c2ccccc2)n1C | 6.11
CCOC(=O)N1CCN(C(=O)C2CCC(=O)N2C(C)C)CC1 (centres unmarked) | 1.28
CCn1c(SCC(=O)c2ccc3c(c2)Cc2ccccc2-3)nnc1-c1ccc(N)cc1 | 1.74
Cc1ccc(S(=O)(=O)N2CCC(C(=O)N[C@@H](C)C(=O)Nc3ccc(F)cc3)CC2)cc1 | 5.35

Structure (SMILES) | hERG current change (%, negative = inhibition) at 1uM [%]
Cc1cccc(N2C(=O)NC(=O)/C(=C\c3ccc(N4CCOCC4)cc3)C2=O)c1 | 17.2
Cc1cc(/C=C(/C#N)C(=O)Nc2ccc(Cl)cc2)c(C)n1-c1cccnc1 | 0.418
CCOC(=O)C1CCN(CC(C)(C)NS(=O)(=O)c2ccccc2)CC1 | 11.5
COc1ccc(C2C(C#N)=C(N)Oc3c2c(-c2ccccc2)nn3-c2ccccc2)c(OC)c1OC (centres unmarked) | 6.17
COCCNC(=O)NC(=O)CN1C(=O)NC(Cc2c[nH]c3ccccc23)C1=O (centres unmarked) | 14.6
COc1ccc(N2CCN(/C(=N\S(=O)(=O)c3ccccc3)Nc3nc(C)cc(C)n3)CC2)cc1 | 10.5
Cc1c(C)n2c(SCC(=O)Nc3ccc4c(c3)OCCO4)nnc2[nH]c1=O | 11.6
CCOC(=O)/C(C(N)=NC)=C(\O)c1ccccc1 | 5.36
CC1CN(C(=O)CCC(=O)N2CCOCC2)c2ccccc2O1 (centres unmarked) | -3.09
O=C(CCn1ccc([N+](=O)[O-])n1)NC1CCCCCC1 | 3.22
CCCN1CCN(CCCNC(=O)c2cc3c(=O)[nH]c4ccccc4c3s2)CC1 | 1.68
Cc1[nH]c2ccccc2c1/C=C/C(=O)c1ccccc1 | 10.4
COc1ccccc1Nc1nc(N)nc(CN2CCN(Cc3ccccc3)CC2)n1 | -76.6
Cc1cc(C)c2c(c1)-c1c(ssc1=S)C(C)(C)N2C(=O)CSc1nncn1C | -0.0873
CCOc1cc(CNCCO)cc(Br)c1OCc1ccccc1Cl.Cl | 12.4
O=C(O)/C=C/C(=O)Nc1ccc(OC(F)(F)F)cc1 | 18.7
O=C1[C@@H]2CSCN2C(=O)CN1Cc1c(F)cccc1Cl | 10.7
N#Cc1c2c(c(NCCOCCO)n3c1nc1ccccc13)CCCC2 | 8.37
CCC1SC2=NCN(c3ccccc3)CN2C1=O (centres unmarked) | 16.9
CCOC(=O)C1CCCN(C(=O)C(C)Oc2ccc(Cl)cc2Cl)C1 (centres unmarked) | 4.21
O=C(O)CCCC(=O)Nc1cccc([N+](=O)[O-])c1 | 12.2
CCOCCCNCC(=O)Nc1ccc(S(=O)(=O)NC(C)CC)cc1.O=CO (centres unmarked) | 10.9
COc1ccc(CCNC(=O)C(=O)NCC2OCCN2C(=O)c2ccc(Cl)cc2)cc1OC (centres unmarked) | 7.64

Structure (SMILES) | hERG current change (%, negative = inhibition) at 1uM [%]
CC1C(C)C(O)(c2ccccc2)CCN1C (centres unmarked) | 13.4
N#Cc1c2ccc(O)cc2n2ccccc12 | 22
Nn1c(SCC(=O)Nc2nc3ccccc3s2)nncc1=O | 11.6
COc1ccc(Cn2nnnc2CN2CCc3ccccc3C2)cc1.Cl | -0.13
Cc1cccc(C)c1-n1nnnc1SCSc1nnnn1-c1c(C)cccc1C | 8.64
CCn1c(SCC(=O)N2CCc3ccccc3C2)nc2sc(C)c(C)c2c1=O | 4.78
COCCC(=O)N1CCC(n2nccc2NC(=O)c2ccccc2C)CC1 | 16
COc1ccccc1NC(=O)Cn1nnc(-c2ccccc2NC(=O)c2cnccn2)n1 | 11.2
Cc1c(Cc2ccccc2)c(NCCN(C)C)n2c(nc3ccccc32)c1C#N | 4.4
Cc1ccccc1Oc1ncnc2sccc12 | 9.26
CC(C)OC(=O)C1CC(C)(O)C(=O)C(C(=O)OC(C)C)C1c1ccc([N+](=O)[O-])cc1 (centres unmarked) | 1.73
CCOc1ccc(C(=O)NCc2ccc3c(c2)OCO3)cc1 | 26.1
O=C(Nc1ccc2c(c1)OCCO2)c1cc(F)c(F)cc1Cl | 14.2
Cc1ccccc1-c1nc(-c2ccc(NC(=O)c3cccs3)cc2)no1 | 11.2
Cc1c(C(=O)NC(=S)NCC(C)C)oc2ccccc12 | 15.9
Cc1cc(N2CCOCC2)ccc1/C=C1\NC(=O)N(Cc2ccccc2)C1=O | 18.4
CCOC(=O)COc1ccccc1/C=C1/NC(=O)NC1=O | 9.94
Cn1cnc(S(=O)(=O)Nc2ccc(Cl)c(C(F)(F)F)c2)c1 | 18.2
O=C(N/N=C/c1ccc[nH]1)c1cccc([N+](=O)[O-])c1 | 11
c1ccc(CNc2ncnc3c2oc2ccccc23)nc1 | 11.8
